Among all 150,000 compounds or so, about 540 (0.36%) showed an effect of 50% or more. Some of the results follow.

This assay relates to Plasmodium falciparum. Kind of assay: Primary screen in NF54 nanoGlo assay, in single point, at 2uM, 72h; a lower Z score goes with more inhibition. The following applies: timepoint 72 hour. It is filed as functional, Erythrocyte.
As a reminder, the % Inhibition is the drop in the measured response relative to a control, in per cent. As to `N#CCC[C@@](C#N)(c1ccccc1)C1CCN(Cc2ccccc2)CC1`, the “% Inhibition” value is -29% and the Z score worked out at 3.42.

As for `O=C(NC1CCCC1)c1n[nH]c2c1CCc1ccccc1-2`, the “% Inhibition” value is recorded as -18% and the Z score was 1.58.

For the molecule `C[C@@H]1OCCO[C@@H]1C(=O)Nc1nc2ccccc2n1CC1CC1`, the “% Inhibition” value was -1% and the Z score is reported as 0.14.

As to `O=C1CC(C(=O)N[C@H](CO)CC2CCCCC2)C1`, the “% Inhibition” value was -7% and the Z score worked out at 0.79.

Regarding `COc1ccccc1NC(=O)[C@H]1CCCN(c2ccnc(-c3cccc(F)c3)n2)C1`, the “% Inhibition” value is on record as -18% and the Z score was found to be 2.12.

For the molecule `Cc1cc(C)n2c(-c3cccnc3)nnc2n1`, the “% Inhibition” value worked out at 34% and the Z score was -4.41.

As to `CN(c1ccccc1)c1nnc(-c2ccc(NC(=O)c3cccs3)cc2)s1`, the “% Inhibition” value is listed as -7% and the Z score amounted to 1.24.

Turning to `CCOc1cccc(-c2cc(C(=O)NC3CCN(C)CC3)c3ccc(Cl)c(C)c3n2)c1`, the “% Inhibition” value was found to be 0% and the Z score is given as -0.04.

With `Cc1ncn(CC(=O)NCc2cncc(C3CC3)c2)c(=O)c1C`, the “% Inhibition” value is recorded as -8% and the Z score is listed as 1.43.

As to `CC(C)N(C(=O)c1cnn(CC(=O)NC2CCCCC2)c1)[C@H]1CCOC1`, the “% Inhibition” value is recorded as -2% and the Z score was 0.3.

On to `Cc1cc2c(cc1S(=O)(=O)N1CCC(Cc3ccccc3)CC1)OCC(=O)N2`, for which the “% Inhibition” value is -4% and the Z score came out at 0.65.

Turning to `COC(=O)c1n[nH]c2ccc(NS(=O)(=O)c3ccc4c(c3)CCCC4)cc12`, the “% Inhibition” value was 3% and the Z score is reported as -0.53.

For the molecule `CCOc1ccc(Cc2nnc(N3CCOCC3)[nH]c2=O)cc1`, the “% Inhibition” value is given as -14% and the Z score is 1.76.

With `COc1ccc(CN2CCC[C@H]2c2nccs2)cc1Cl`, the “% Inhibition” value amounted to 4% and the Z score is -0.47.

As for `CC(C)c1noc(CN(C)CC[C@H]2CCS(=O)(=O)C2)n1`, the “% Inhibition” value is recorded as -13% and the Z score stood at 1.43.

Regarding `CC(=O)N1CCc2ccc(OCc3ccc(C(=O)NCC4CC4)o3)cc2[C@@H]1c1ccccc1`, the “% Inhibition” value is on record as -17% and the Z score stood at 1.99.

`COc1ccc(S(=O)(=O)Nc2cccc(Cl)c2Cl)cc1C(=O)N1CCCCCC1`: the “% Inhibition” value was -31% and the Z score was 3.6.

As to `Cn1cc(C2CCCN2CC(O)COc2ccc(F)cc2)cn1` (stereo unspecified), the “% Inhibition” value is -10% and the Z score is reported as 0.82.

Turning to `Cc1ccsc1CN(Cc1ccc(F)cc1)C(=O)CN(CCN1CCCC1)C(=O)c1ccccc1F`, the “% Inhibition” value is recorded as -6% and the Z score came out at 0.7.

As to `CC(C(=O)N1C[C@H](C)[C@@](C)(C(=O)O)C1)C1CC1` (stereo partly specified), the “% Inhibition” value is listed as -2% and the Z score worked out at 0.27.

For `C[C@H](Nc1ccc2c(c1)CCO2)C(=O)N(CCC#N)c1ccccc1`, the “% Inhibition” value is reported as -6% and the Z score came out at 1.16.

As for `Cc1nc2c(c(N3CCCC3)n1)CCN(C(=O)c1cc(CC(C)C)no1)C2`, the “% Inhibition” value is given as -4% and the Z score worked out at 0.86.

As to `CC(C(=O)NCCCC1CCCN1C(=O)OC(C)(C)C)C1CC1` (stereo unspecified), the “% Inhibition” value is -7% and the Z score turned out to be 0.62.

For the molecule `O=C(NCc1ccccc1)C1CCC(Cn2c(=O)c3ccccc3n(Cc3cccnc3)c2=O)CC1` (stereo unspecified), the “% Inhibition” value turned out to be 0% and the Z score was found to be 0.05.

With `NC(=O)[C@@H]1COCCN1Cc1ccc(OCc2ccccc2F)nc1`, the “% Inhibition” value is 1% and the Z score was -0.21.

With `CC(=C(F)C(=O)N1CCN(Cc2ccnn2C)CC1)C1CC1`, the “% Inhibition” value is -6% and the Z score is listed as 1.21.

As to `CC(C)c1[nH]ccc1C(=O)NC1(c2ccccc2)COC1`, the “% Inhibition” value is 0% and the Z score is on record as -0.06.

As for `Cc1noc2ncc(C(=O)N3CCC[C@H]3c3ccc(C(C)(C)C)cc3)cc12`, the “% Inhibition” value is recorded as -3% and the Z score is 0.6.

Regarding `C[C@H](NC1CCCCCC1)c1ccc(S(N)(=O)=O)cc1F`, the “% Inhibition” value was -6% and the Z score is 0.92.

For `C[C@H]1CN(Cc2ccccc2OCC(=O)O)CC[C@]1(O)C1CC1`, the “% Inhibition” value was -8% and the Z score amounted to 1.62.

Regarding `Cc1ccc(C)c(C2CCN(C(=O)[C@H](C)N3C(=O)CCC3=O)CC2)c1`, the “% Inhibition” value is recorded as 5% and the Z score is -0.61.

Turning to `CC[C@@](C)(C#N)NC(=O)c1ccc(OC)c(OC)c1`, the “% Inhibition” value is reported as -14% and the Z score is given as 2.94.

As for `C[C@@H](NC(=O)N[C@@H]1CCNC1)C(c1ccccc1)c1ccccc1`, the “% Inhibition” value is -7% and the Z score amounted to 0.87.

On to `C[C@@H](Cc1ccc(C(F)(F)F)cc1)C(=O)N(C)c1nccs1`, for which the “% Inhibition” value was 14% and the Z score is -1.49.

Regarding `Cc1ccc(-c2cn(CCN3CCCOC3=O)nn2)o1`, the “% Inhibition” value was -16% and the Z score is given as 2.13.

On to `CC[C@H](NC(=O)c1[nH]nc(C)c1Cl)c1nccs1`, for which the “% Inhibition” value is on record as 2% and the Z score is given as -0.39.

As for `COc1ccccc1CN(C(=O)c1ccco1)c1nc2[nH]c(C)c(Cc3ccccc3)c(=O)n2n1`, the “% Inhibition” value is reported as -11% and the Z score was found to be 1.07.

For the molecule `CCCC(CCC)NC(=O)c1cncn1-c1cccc(-c2ccccc2C(F)(F)F)c1`, the “% Inhibition” value is -5% and the Z score came to 0.68.

Regarding `CC(C)[C@@H]1N(C(=O)COc2ccc(CO)cc2)CC12CCC2`, the “% Inhibition” value was -4% and the Z score is recorded as 0.7.

As for `CN1CCN(CCc2nc(Cc3c(Cl)cccc3Cl)no2)CC1`, the “% Inhibition” value is 28% and the Z score is given as -3.14.

For the molecule `O=C(c1ccoc1)N1CCc2oncc2C1`, the “% Inhibition” value is reported as -12% and the Z score was 1.94.

As to `Cc1ccc(CNCc2cccc(C3CC3)c2)c(=O)n1C`, the “% Inhibition” value was -15% and the Z score worked out at 2.34.

Consider `O=C1CCCN1[C@H]1CCN(S(=O)(=O)CC2CCC2)C1`, for which the “% Inhibition” value was 4% and the Z score was -0.3.

For the molecule `O=c1[nH]c2nc(N3CCN(c4cccc(Cl)c4)CC3)ncc2c(=O)n1C1CCCC1`, the “% Inhibition” value is on record as -5% and the Z score came to 0.53.

`CC(C)OCC[C@H](O)CNc1cnn(Cc2nnc3n2CCCC3)c1`: the “% Inhibition” value is given as -1% and the Z score turned out to be 0.12.

As to `Cc1ccccc1OCC(=O)NCc1c(C)ncc2c1CCNC2`, the “% Inhibition” value is reported as -15% and the Z score was 1.87.

On to `CN(C[C@H]1COc2ccccc2O1)C(=O)c1cnn[nH]1`, for which the “% Inhibition” value is listed as -2% and the Z score was found to be 0.3.

As for `CCCn1ncc(-c2cc(-c3cc(O)ccc3OC)c(C#N)c(N)n2)c1C`, the “% Inhibition” value is recorded as -6% and the Z score is listed as 0.87.

As to `Cc1cc(C(=O)N(C)C2(C#N)CCC2)c(C)n1-c1ccc2c(c1)OCCO2`, the “% Inhibition” value was -8% and the Z score was found to be 0.8.

For the molecule `CC1=C(C(=O)Nc2ccccc2)[C@H](c2ccc(Cl)cc2)N=C(Nc2nc3ccccc3s2)N1`, the “% Inhibition” value stood at 33% and the Z score is given as -3.7.

Turning to `COc1ccc(S(=O)(=O)CCNC(=O)c2n[nH]c3c2CCC3)cc1`, the “% Inhibition” value is given as -15% and the Z score was 2.29.

Take `CCCn1cnc2ccc(-c3noc(CNS(=O)(=O)c4ccccc4)n3)cc21`: the “% Inhibition” value is -27% and the Z score is recorded as 4.62.

Turning to `CN(C)c1cnc(C(=O)NCc2noc3c2CCCC3)cn1`, the “% Inhibition” value is listed as 0% and the Z score is recorded as -0.05.

Values taken from ChEMBL document CHEMBL4888484, “Replenishing the malaria drug discovery pipeline: Screening and hit evaluation of the MMV Hit Generation Library 1 (HGL1) against asexual blood stage Plasmodium falciparum ,using a nano luciferase reporter read-out” (2022).
